The other results are listed elsewhere or left out.
T1: UNK ZnF1-6 (called full-length) (human, UniProt Q9C0B0 30-357)
T1 sequence: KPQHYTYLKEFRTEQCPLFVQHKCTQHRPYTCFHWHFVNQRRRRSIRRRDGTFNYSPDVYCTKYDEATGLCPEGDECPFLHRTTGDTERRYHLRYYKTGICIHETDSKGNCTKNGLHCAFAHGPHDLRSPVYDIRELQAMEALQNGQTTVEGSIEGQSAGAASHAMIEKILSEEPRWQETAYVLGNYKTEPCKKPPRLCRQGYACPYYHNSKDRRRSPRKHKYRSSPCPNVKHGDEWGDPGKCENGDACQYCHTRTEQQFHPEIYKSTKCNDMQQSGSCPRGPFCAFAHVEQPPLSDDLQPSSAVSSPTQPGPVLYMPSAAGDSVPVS

B1: chr3:25618756:25618858:-|CDS|ENSG00000077097|unk|total|mutant (ssRNA)
RNA: GGGAGUUCUACAGUCCGACGAUCUAUAUAAGUUAAAAUACCAGUACAGAUCUAUAUGAUCUGCAAAGUAUAUGUGUUUUGCUCCGGUACUUUUUGAUCAUAUGGGAUGUCUGAAGAAAUAUGAAACUGUGCAAGACAUUCUGACAACAGAGGAUUGAGCAUCA
B2: chr7:44573567:44573675:-|CDS|ENSG00000136271|unk|total|mutant (ssRNA)
RNA: GGGAGUUCUACAGUCCGACGAUCCGCACGGGCUCCGGGAAGACGGCCGCUUAUGCUAUUCCGAUGCUGCAGCUGUUGCUCCACCGGAAGGCGGUGGGUAACGAGAGAGCUGAGGGGAGGAAGGAGGCAAGCUCCAAAAGCCUGCAACAGAGGAUUGAGCAUCA
B3: chr1:204554719:204554820:+|3pUTR|ENSG00000198625|unk|total|mutant (ssRNA)
RNA: GGGAGUUCUACAGUCCGACGAUCAAGUACUUUCUUUUGACAGAAAUUUUCAUUCUGCUUGCCAUUGCUAUAUUCUCCCUUUACCGGAGCCAUUGGAUUUCUUUCCUUUUGUGGGAAAUGUCCCAUCCGCAUUUUCAGAUCUUUCAACAGAGGAUUGAGCAUCA
B4: chrX:149582234:149583179:-|CDS|ENSG00000267978|control|control|control (ssRNA)
RNA: GGGAGUUCUACAGUCCGACGAUCUCCUACAUCCUUGUCACUGCUCUUGGCCUCUCGUGCGAUAGCAUGCUGGGUGAUGGUCAUAGCAUGCCCAAGGCCGCCCUCCUGAUCAUUGUCCUGGGUGUGAUCCUAACCAAAGACAACCAACAGAGGAUUGAGCAUCA
B5: ENSG00000070961:be:win_2351|CDS|ENSG00000070961|bound_else_gene|NA|bound_elsewhere_windowed (ssRNA)
RNA: GGGAGUUCUACAGUCCGACGAUCCUGUCUCAGACCAACGCCAGGUUGUAGCUGUAACUGGUGAUGGUACAAAUGAUGGCCCAGCACUAAAGAAAGCAGAUGUUGGAUUUGCAAUGGGUAUUGCUGGAACUGAUGUAGCUAAAGCAACAGAGGAUUGAGCAUCA
B6: ENSG00000136451:be:win_3501|3pUTR|ENSG00000136451|bound_else_gene|NA|bound_elsewhere_windowed (ssRNA)
RNA: GGGAGUUCUACAGUCCGACGAUCUCCACAGUACAAAAAUGGUUUGUUUUUAAUAUGUAGAGCAUUAUGUGUGGACUACUGGAAGGACUCGUGUAGGGAAAGCCCAAGAAUGACCUUGCUGAGGCCUGGAUUGGGAGGCACAGUCAACAGAGGAUUGAGCAUCA
B7: chr14:92131016:92131127:+|CDS|ENSG00000165934|unk|total|mutant (ssRNA)
RNA: GGGAGUUCUACAGUCCGACGAUCACCCUUUCUGGGGUCCAAGAAGAAUCUGCCCUUUGCUAUCUUCUCCAAGUUGAUGAGUUCCGAUUUUUAUUGGACUGUGGCUGGGAUGAGCACUUUUCUAUGGAUAUUAUUGAUUCCCUGCAACAGAGGAUUGAGCAUCA
B8: chr3:186556460:186556561:-|CDS|ENSG00000113838|unk|total|mutant (ssRNA)
RNA: GGGAGUUCUACAGUCCGACGAUCAGAGCCAGGAAGAUCUAUCCACUUCAUGAACUUGCACUGUGGCAACCACUGCAUGCAGACCGUGGCUUCUCAAAGAUCUCUAAGACUUUCUCUUUCUACAAACUGGAAACCUGGUUGAGGCAACAGAGGAUUGAGCAUCA
B9: chr5:93620789:93620892:-|3pUTR|ENSG00000113391|unk|total|mutant (ssRNA)
RNA: GGGAGUUCUACAGUCCGACGAUCCAGCCCCUCAUCCGAUUGUUUUCUUCCCAGAGCCCAGGGUCGUGAUAUAUACAUCUAAACCGCGUUUUGCAUUAUUUCCCGAUGAGUGCAACUGUCAAAGCAAUAUGGGUUCACUGGUCGCAACAGAGGAUUGAGCAUCA
B10: chr1:165910223:165910324:+|3pUTR|ENSG00000143179|unk|total|mutant (ssRNA)
RNA: GGGAGUUCUACAGUCCGACGAUCCCAGCAUUUGGCCAACUCUGUAUCUGAACUUGAGCUUUCUAUGGAACAAACAAUGGUCUCCGUUUUUUAAGAGCCUCUGGGUCUCUGAUUCCAUGGAGAGUCAGGAGCCGAAUCCGUGGACAACAGAGGAUUGAGCAUCA
B11: chr19:17405403:17405546:-|CDS|ENSG00000130303|unk|FALSE|unique (ssRNA)
RNA: GGGAGUUCUACAGUCCGACGAUCUGACUAUUGCAGAGUGCCCAUGGAAGACGGGGAUAAGCGCUGUAAGCUUCUGCUGGGGAUAGGAAUUCUGGUGCUCCUGAUCAUCGUGAUUCUGGGGGUGCCCUUGAUUAUCUUCACCAUCAACAGAGGAUUGAGCAUCA
B12: chr9:83806335:83806438:-|CDS|ENSG00000165113|unk|total|mutant (ssRNA)
RNA: GGGAGUUCUACAGUCCGACGAUCUGGCUCUGAUUCUGAACCUGGAAAAGGUAAAGGUCGAAAUACUGGAAAGUCUCAAACUUCCGGAAGCAAGUCAACUACAAAUGAGAAAAAAAGAGAGAAAAGAAGAAAAAAGAAGGAACACAACAGAGGAUUGAGCAUCA
B13: chrX:85861749:85861850:-|3pUTR|ENSG00000188419|msi1|total|mutant (ssRNA)
RNA: GGGAGUUCUACAGUCCGACGAUCCUAAUUUAAAAUUUCAGAAAAUGCUAUUAAAGAAUUUUGAUUCAAGUAUUUAAACUGUUCCGUUAUGCAUGCUUCUUAUUAACCGAAAAUGAUAAUACCAUUCCGUUCCGUGAUCAGUAUCAACAGAGGAUUGAGCAUCA
B14: chr11:57661263:57661364:+|CDS|ENSG00000172409|unk|total|mutant (ssRNA)
RNA: GGGAGUUCUACAGUCCGACGAUCCCACCUACUGAGUGUCCGCACUGCCGAGGGUACAGAGGAGAACCUGUCCGAGACAAGUGCCGCUGGCUUCAUUGUGGUGACCAGUGUGGACCUGGAGCAUCAGGUGUUUACUGUUCUGUCCAACAGAGGAUUGAGCAUCA
B15: chr3:9371215:9371332:+|CDS|ENSG00000134077|unk|FALSE|unique (ssRNA)
RNA: GGGAGUUCUACAGUCCGACGAUCUGGACAAGAAGUCAAAAUCGAUCAGAGAAAUGUUAAAAAAGAGUUCACUAGCCAUGCUUUAGAUUCUCAUAUCUUAGAUUAUUAUGAAAAUCCAGCCAUCAAAGAGGAUGUAUCAACAUUCAACAGAGGAUUGAGCAUCA
B16: chr10:126014591:126014692:-|3pUTR|ENSG00000148848|msi1|total|mutant (ssRNA)
RNA: GGGAGUUCUACAGUCCGACGAUCAAAGGUUUGUCUCCUGAAAUUUUUUAAGUUUGUUUUCCUGACACAUGUAAUCAGAUGUGCCGCAACCGAGGGAAACGAAGCCUAACAUUCUCCAUUGUGGAAAUACACACAGGAGGUUACCAACAGAGGAUUGAGCAUCA
B17: chr19:12699786:12699848:-|3pUTR|ENSG00000105576|msi1_unk|FALSE|overlapping (ssRNA)
RNA: GGGAGUUCUACAGUCCGACGAUCCCUGCUCCAUCCAUCCCUCCUGGGCGCCAGACCCUCCAUCCAAGCCCUGUGUCUUUCCAUAGUCAGGGUCAGGCCCUGCAUCUAUUCCAAGGGGCACUCAGUACACAUUCCAUAAAUUAGCAACAGAGGAUUGAGCAUCA
B18: ENSG00000198589:be:win_951|CDS|ENSG00000198589|bound_else_gene|NA|bound_elsewhere_windowed (ssRNA)
RNA: GGGAGUUCUACAGUCCGACGAUCAUGUUAUGUGAAUGGUGAGCUGGCUUCCUAUGGAGAGAUAACAUGGUUUGUCAACACUAGCGAUACCUUUGACAAAUGUUUCCUGGGCUCAUCAGAAACAGCAGAUGCUAAUAGAGUAUUCAACAGAGGAUUGAGCAUCA
B19: chr8:76864132:76864233:+|CDS|ENSG00000091656|msi1|total|mutant (ssRNA)
RNA: GGGAGUUCUACAGUCCGACGAUCUCAAGCUUGCACAAAGAGAAAACAAUCAAACAAGCAAUGAGAAAUGCCAAAGAGCAUGUCCGAUUAUUACCUCACUCAGUCUGCUCCCCUAAUCCUAACACCACAUCUACCUCGCAGUCUCAACAGAGGAUUGAGCAUCA
B20: chr3:154334942:154337698:-|three_prime_utr|ENSG00000174948|control|control|control (ssRNA)
RNA: GGGAGUUCUACAGUCCGACGAUCAACUGUGAAACUAACACCUUUGUUAUGAGACUGAUUUCCUUUUAUUUGUUGGCUUACAUUAGUUUUACUGAUUUAAUAGUUAAUUUUUUUGUGGGAACAACUGGAACUAGUGUAAACACUCAACAGAGGAUUGAGCAUCA
B21: chrX:65740646:65740790:+|3pUTR|ENSG00000147065|msi1|FALSE|unique (ssRNA)
RNA: GGGAGUUCUACAGUCCGACGAUCGGCCAUUCUAUUGUGGCAAGGCUGAGUAGAAGAUCCUACCCCAAUUCCUUGUAGGAGUAUAGGCCGGUCUAAAGUGAGCUCUAUGGGCAGAUCUACCCCUUACUUAUUAUUCCAGAUCUGCAACAGAGGAUUGAGCAUCA
B22: chr18:2804133:2804242:+|3pUTR|ENSG00000101596|unk|total|mutant (ssRNA)
RNA: GGGAGUUCUACAGUCCGACGAUCGGUUAAAGAGAAAUGACUUUUCCGGAACCCGACUUGAACGUAUAAUUAAUAUGUGGAACCCGUUUGCUUUUAUAAUUCAUUGUAUCAAGAAGGAGUCAUGUUUUAAAUCCAAGGCAUUGACAACAGAGGAUUGAGCAUCA

Target: T1, UNK ZnF1-6 (called full-length)
Assay: nsRBNS (natural sequence RNA bind-n-seq); RBNS binding buffer (assumed for nsRBNS): 25 mM Tris pH 7.5, 150 mM KCl, 3 mM MgCl2, 0.01% Triton X-100, 500 ug/ml BSA, 20 U/ml SUPERase-In, 4 C; UNK is unkempt and MSI1 is Musashi-1; names of the RNAs are library labels; protein concentration not given here; high values mean tight binding

Binder	binding signal [enrichment R]
B1	0.35
B2	0.755
B3	0.352
B4	0.664
B5	0.509
B6	0.591
B7	0.429
B8	0.525
B9	0.615
B10	0.546
B11	0.856
B12	0.665
B13	0.403
B14	0.526
B15	1.15
B16	0.415
B17	1.1
B18	0.819
B19	0.565
B20	1.63
B21	0.668
B22	0.568

— paper PMC12136788
